# According to PubChem BioAssay AID1347073 (National Center for Advancing Translational Sciences (NCATS), 2019):
# Out of some 45,000 compounds screened, about 200 (0.44%) were called active. Another 7% or so got no clear call; they are omitted. The call rests on the fitted dose curve; in most records, active means well fitted activation curve with a large enough effect; inconclusive means small, poorly fitted or top-dose-only effect; inactive means no such curve, though single readings can be large or run the other way. Some of the results follow.
# Assay: qHTS of TDP-43 Inhibitors: NCGC Sytravon Library Screen; further: 0% is about no effect; nearly all actives have a fitted effect of over 55% in size
# Conditions: yeast TDP-43 toxicity rescue, BacTiter-Glo growth, 24 h; series mostly up to 46.1 µM; growth rescue (activation): at the top concentration
# Method in brief: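 TDP-43-expressing yeast, pregrown in raffinose, seeded at OD600 0.02 in galactose medium with compound for 24 hr at 30 deg C. Growth read by BacTiter-Glo luminescence, so rescue of toxicity appears as activation.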
row,SMILES,growth rescue (activation)
1,Cc1cc2cc(C#N)c(SCC(=O)Nc3nonc3C)nc2cc1C,inactive: -6.66%
2,O=C(CSc1nc2cc(Cl)ccc2c(=O)n1Cc1ccco1)Nc1ccc(S(=O)(=O)N2CCOCC2)cc1,inactive: 21.8%
3,COc1cc(SC)ccc1C(=O)N(C)CC(=O)Nc1cccc2ccccc12,inactive: 23.3%
4,O=C(CCn1c(=O)c2ccccc2n(Cc2ccccc2)c1=O)NCc1ccc2c(c1)OCO2,inactive: 12.6%
5,CC(C)c1ccc(C(=O)CN2C(=O)NC3(CCc4ccccc43)C2=O)cc1 (stereo not drawn),inactive: -52.6%
6,N#CCCN(Cc1ccccc1)C(=S)Nc1ccccc1,inactive: 13.2%
7,CC1CCc2c(sc(/N=C/N(C)C)c2C#N)C1 (stereo not drawn),inactive: 33.5%
8,CCOc1ccc(NC(=O)Cn2cc(C(C)=O)c3ccccc32)cc1,inactive: -4.91%
9,CC(C)C(N)c1csc(Nc2ccc(C(F)(F)F)cn2)n1 (stereo not drawn),inactive: 5.48%
10,O=C1N=C(N2CCOCC2)S/C1=C\c1ccncc1,inactive: -7.99%
11,COCCn1cnc2c1c(=O)n(Cc1ccc(C#N)cc1)c(=O)n2Cc1ccccc1,inactive: 5.43%
12,Cc1[nH]n(-c2ccccc2)c(=S)c1C=Nc1ccc([N+](=O)[O-])cc1,inactive: 12.5%
13,CCC(C)NS(=O)(=O)c1ccc(NC(=O)CNCc2cccs2)cc1 (stereo not drawn),inactive: -3.02%
14,N#Cc1ccccc1Sc1ccccc1C(=O)OCC(=O)NC12CC3CC(CC(C3)C1)C2,inactive: -1.51%
15,O=[N+]([O-])c1cccc(-c2n[nH]c(=S)n2-c2ccc(Br)cc2)c1,inactive: 2.94%
16,C/C(=N/OC(=O)c1c(-c2ccccc2Cl)noc1C)c1cnccn1,inactive: 26.2%
17,COc1ccc(CSCC(=O)N/N=C/c2ccccc2O)cc1,inactive: -2.2%
18,CN1C(=O)N(C)C(c2ccccc2Cl)C2=C1CC(C)(C)CC2=O (stereo not drawn),inactive: 22.1%
19,CN(C)S(=O)(=O)c1cccc(COC(=O)CN2CCCCCC2=O)c1,inactive: 8.83%
20,Cc1ccc(S(=O)(=O)N2CCC(C(=O)OCc3ccc([N+](=O)[O-])cc3)CC2)cc1,inactive: 28.8%
21,Nc1cc(=O)[nH]c(SCC(=O)Nc2cc(S(=O)(=O)N3CCOCC3)ccc2Cl)n1,inactive: -5.82%
22,CCC(=O)NC(=S)Nc1c(C)cc(Br)cc1C,inactive: 35%
23,COc1ccc(NCC(=O)N/N=C2\CCc3ccccc32)cc1,inactive: 9.24%
24,CCOC(=O)C1=C(C)NC(=O)NC1c1cc(Br)c(O)c(OC)c1 (stereo not drawn),inactive: -18.8%
25,NS(=O)(=O)c1ccc(CCNC(=O)c2ccc(NC3=NC4CS(=O)(=O)CC4S3)cc2)cc1 (stereo not drawn),inactive: 1.29%
26,Cc1nc2ccc(Cl)cn2c1C(=O)NN,inactive: 8.28%
27,COc1ccccc1CC(=O)Nc1ccc2nc(C)sc2c1,inactive: 16%

row,SMILES,growth rescue (activation)
1,CCC1CCCCN1CCCNC(=O)CSc1nc2nc(C)c(Cc3ccc(C)cc3)c(C)n2n1 (stereo not drawn),inactive: -4.64%
2,CSCCC(NS(=O)(=O)/C=C/c1ccccc1)C(=O)NCCc1ccc(S(N)(=O)=O)cc1 (stereo not drawn),inactive: 7.18%
3,CC(C)c1onc(C(=O)NCCc2ccccc2)c1[N+](=O)[O-],inactive: 22.3%
4,COC(=O)c1ccc(NC(c2ccc(Cl)cc2)P(=O)(OC)OC)cc1 (stereo not drawn),inactive: -21.4%
5,O=[N+]([O-])c1cc(/C=N\Nc2nc(-c3ccccc3)cs2)ccc1O,inactive: -3.62%
6,COc1ccc(CCN(C)Cc2c(O)ccc3ccccc23)cc1OC,inactive: -4.41%
7,CCCCC(=O)N(C)c1c(CC)nc2c(OCCOC)cccn12,inactive: -9.58%
8,CCOC(=O)c1c(C)n(C)c2ccc(OC)c(NC(=O)CN3CCCCC3)c12,inactive: 7.91%
9,O=[N+]([O-])c1cccc(N/N=C/c2ccc(N3CCOCC3)cc2)c1,inactive: 4.44%
10,O=c1[nH]c(Cc2ccccn2)nc2scc(-c3ccc(Cl)cc3)c12,inactive: 2.35%
11,CC1Cc2ccccc2N1C(=O)CSc1nnc(-c2ccc(S(=O)(=O)N3CCOCC3)cc2)n1C (stereo not drawn),inactive: 18.7%
12,CCc1cc(=O)[nH]c(SCc2ccc(C)cc2)n1,inactive: 26.2%
13,CN(CC(=O)NCCc1ccccc1)S(=O)(=O)c1cnc[nH]1,inactive: 15.4%
14,CC(C)(C)NC(=S)NCc1ccncc1,inactive: -0.0637%
15,O=C1CC(NNc2ccccc2)C(=O)N1c1cccc(Cl)c1 (stereo not drawn),inactive: -10.7%
16,C=CCSC1=N/C(=C\c2ccc3c(c2)OCO3)C(=O)S1,inactive: -3.95%
17,CC(C)[C@H](NC(=O)OCc1ccccc1)C(=O)OCC(=O)NCc1ccco1,inactive: 0.2%
18,COc1ccc(CCNC(=O)c2ccccc2NS(=O)(=O)c2cc(C(=O)O)ccc2OC)cc1,inactive: 11.6%
19,C/C(=N\S(=O)(=O)c1ccc(C)cc1)N(C)C,inactive: 12.9%
20,C=CCn1c(SCC(N)=O)nc2nc3c(cc2c1=O)COC(C)(C)C3,inactive: 29.1%
21,Cc1ccc(NS(=O)(=O)c2cccc(C(=O)Nc3cccnc3)c2)c(C)c1,inactive: 15.9%
22,COc1ccc(F)cc1C(=O)C1CCCN(Cc2cnc(N3CCCC3)s2)C1 (stereo not drawn),inactive: 2.81%
23,CC(C(=O)NCC1CCCO1)N1C(=O)C2C3CC(C(Br)C3Br)C2C1=O (stereo not drawn),inactive: -3.01%
24,CS(=O)(=O)N1CCN(c2ccc([N+](=O)[O-])c(SCc3ccco3)c2)CC1,inactive: -3.74%
25,CC(NC(=O)CCc1nnc(Cc2cccc(C(F)(F)F)c2)o1)C1CC1 (stereo not drawn),inactive: 1.52%
26,CC(NS(=O)(=O)/C=C/c1ccccc1)c1ccccc1 (stereo not drawn),inactive: 21%
